# Laboratory results reported in article PMC4336329 (PLoS ONE, 2015).
# In all, about 310,000 compounds went through this assay and about 14,000 (4.5%) showed an effect of 50% or more. The effect is printed as a negative number. The list shows a part of the results.
# Biological target: human ether-à-go-go-related gene (hERG) potassium channel (human, UniProt Q12809)
# Test: primary screen, population patch clamp on CHO cells stably expressing hERG
# 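Further: peak tail current of the secondary pulse compared with the same well before compound.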
# Sequence of human ether-à-go-go-related gene (hERG) potassium channel (Q12809 whole entry, looked up): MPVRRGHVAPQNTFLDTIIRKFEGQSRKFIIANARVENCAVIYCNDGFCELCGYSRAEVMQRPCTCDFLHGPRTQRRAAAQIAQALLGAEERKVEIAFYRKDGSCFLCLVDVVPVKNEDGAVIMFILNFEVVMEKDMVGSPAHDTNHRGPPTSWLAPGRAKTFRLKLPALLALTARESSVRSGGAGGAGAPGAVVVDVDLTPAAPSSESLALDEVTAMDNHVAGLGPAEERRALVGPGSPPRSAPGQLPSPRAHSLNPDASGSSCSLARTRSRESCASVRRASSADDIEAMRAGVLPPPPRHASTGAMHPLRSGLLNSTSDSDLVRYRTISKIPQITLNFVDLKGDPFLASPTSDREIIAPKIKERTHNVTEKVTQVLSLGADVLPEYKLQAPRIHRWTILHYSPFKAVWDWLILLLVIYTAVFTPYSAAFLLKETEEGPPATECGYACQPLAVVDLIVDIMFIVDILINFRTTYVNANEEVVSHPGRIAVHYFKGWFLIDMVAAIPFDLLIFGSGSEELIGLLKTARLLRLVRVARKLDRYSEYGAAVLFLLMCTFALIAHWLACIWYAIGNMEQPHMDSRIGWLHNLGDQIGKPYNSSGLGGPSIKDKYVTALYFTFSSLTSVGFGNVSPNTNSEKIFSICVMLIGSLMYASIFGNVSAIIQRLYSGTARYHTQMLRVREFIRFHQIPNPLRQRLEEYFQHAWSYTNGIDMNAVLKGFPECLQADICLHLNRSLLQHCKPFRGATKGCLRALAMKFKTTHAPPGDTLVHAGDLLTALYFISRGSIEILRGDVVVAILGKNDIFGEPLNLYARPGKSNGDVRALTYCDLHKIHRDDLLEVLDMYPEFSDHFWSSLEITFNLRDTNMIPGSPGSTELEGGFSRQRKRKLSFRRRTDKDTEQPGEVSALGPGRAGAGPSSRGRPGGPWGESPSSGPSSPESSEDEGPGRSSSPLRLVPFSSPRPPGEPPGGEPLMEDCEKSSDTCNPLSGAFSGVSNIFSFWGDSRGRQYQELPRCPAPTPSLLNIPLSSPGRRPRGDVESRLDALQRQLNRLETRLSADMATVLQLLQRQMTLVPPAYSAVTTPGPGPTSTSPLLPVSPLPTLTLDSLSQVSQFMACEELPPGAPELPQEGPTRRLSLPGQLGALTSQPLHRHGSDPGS
row,Structure (SMILES),"hERG current change (%, negative = inhibition) at 10uM [%]"
1,CCCNC(=O)CSc1nnc(-c2ccccc2Br)n1-c1cccc(C(F)(F)F)c1,-28.2
2,O=C(CSc1nnc2c(n1)[nH]c1ccccc12)OCc1ccccc1,16.5
3,CCOC(=O)c1[nH]cnc1C(=O)Nc1ccccc1C,-1.39
4,Cc1onc(-c2ccccc2)c1C(=O)OCC(=O)N1CCC(C)CC1,-7.23
5,O=C(NCc1cn2ccsc2n1)c1cccc(C(F)(F)F)c1,11.8
6,CN(C)C(CNC(=O)C1CCN(C(=O)/C=C/c2ccccc2)CC1)c1ccccc1 (stereo not drawn),3.01
7,Cc1cccc(-c2nc3c(s2)CCc2onc(-c4ccc(Br)cc4)c2-3)c1,15.1
8,COc1ccc(/C=C2/SC(=O)N(CC(=O)NCCC(C)C)C2=O)cc1OC,9.04
9,CCc1ccc(S(=O)(=O)n2c(C)nc3ccccc32)cc1,18.9
10,Nc1[nH+]c(-c2ccc([N+](=O)[O-])cc2)cs1.[Br-],14.1
11,O=C(Cc1ccccc1)N/N=C/c1cccs1,15.6
12,CCc1ccc(CN2CCC(n3nccc3NC(=O)Cc3ccccc3)CC2)o1,-29.6
13,O=C(CN(Cc1ccccc1Cl)C(=O)c1ccc(CN2CCOCC2)o1)NCc1ccccc1,-18.7
14,CC12CN3CC(C)(CN(C1)C3c1ccc3c(c1)OCO3)C2 (stereo not drawn),4.87
15,Cc1ccc(C)c(NC(=O)CN(C)C(=O)c2ccccc2OCc2c(C)noc2C)c1,-38
16,O=C(Nc1ccccc1F)N1CCCC1c1cccnc1 (stereo not drawn),8.27
17,CSc1ccc(CNCc2ccco2)cc1.Cl,-4.78
18,O=c1cc(COn2nnc3ccc(C(F)(F)F)cc32)nc2sccn12,12.9
19,Cc1ccc(C)c(C(=O)COC(=O)CN2C(=O)C3C4C=CC(C4)C3C2=O)c1 (stereo not drawn),2.01
20,COc1ccc2c(CSc3nc4nc(C)cc(C)n4n3)cc(=O)oc2c1,-19
21,CCOc1ccccc1NC(=O)NNC(=O)c1ccc2ccccc2c1,19.1
22,Cc1oc(-c2ccccc2F)nc1CS(=O)CC(=O)NC1CCCC1 (stereo not drawn),-6.26
23,C=CCn1c(-c2ccc(=O)n(Cc3ccccc3)c2)n[nH]c1=S,12.3

row,Structure (SMILES),"hERG current change (%, negative = inhibition) at 10uM [%]"
1,CC1(C(=O)NNC(=O)c2ccc(=O)oc2)CC1Br (stereo not drawn),8.15
2,COC(=O)Cc1ccc(NC(=S)Nc2ccccn2)cc1,8.71
3,COc1ccc(C(C)NC(=O)Cc2cccs2)cc1 (stereo not drawn),10.3
4,Cl.NCCc1nnc(SCc2c(F)cccc2Cl)o1,10.3
5,Cc1ccc(C(=O)OCC(=O)NCCc2ccccc2)cc1S(=O)(=O)N1CCOCC1,-17.2
6,Cc1cc(C)cc(NC(=O)c2sc3nc4n(c(=O)c3c2C)CCC4)c1,-22.4
7,Cc1cc(C)c2c(CC(=O)O)coc2c1,6.6
8,CS(=O)(=O)N1CCC(C(=O)NCc2ccc(Cl)cc2)CC1,-5.91
9,COc1ccc(-n2cnc3ccccc32)cc1,4.01
10,CCCCCN(C(=O)NC(=O)Nc1ccccc1OC)S(C)(=O)=O,8.76
11,Cc1ccc(/C=C/C(=O)Nc2nc3ccccc3[nH]2)cc1,-8.89
12,C[C@@]12C(=O)Nc3ccc(Cl)cc3C(=O)N1[C@H]1c3ccccc3OC[C@@H]1[C@@H]2c1ccccc1,24.8
13,COc1ccc(CN(C)CC(O)COc2ccc(C(=O)c3ccccc3)cc2)c(OC)c1OC (stereo not drawn),-63.7
14,COc1cc(NC(=O)CN2CCN(C(=O)C3CCCO3)CC2)c(OC)cc1Cl (stereo not drawn),-12.5
15,COc1cc(S(=O)(=O)N2CCN(C)CC2)c(OC)cc1Cl,13.2
16,COc1cccc(CN2CCN(Cc3cccc(Br)c3)CC2)c1OC.O=C(O)C(=O)O,-21.2
17,CCN1CCN(c2ccc(S(=O)(=O)N3CCCCC3)cc2NC(=O)Cc2c(F)cccc2Cl)CC1,-8.09
18,CCCC1=C(C(=O)OCC)C(c2cccs2)C(C#N)=C(N)O1 (stereo not drawn),0.909
19,CNC(=S)N1CCN(c2ccc(OC)cc2)CC1,-6.28
20,CCC1(C)N([O-])C(C)=C(c2ccccc2)[N+]1=O (stereo not drawn),9.85
21,COc1ccccc1CNC(=O)COC(=O)C1CCN(S(=O)(=O)c2ccc(C)c(C)c2)CC1,-9.44
22,COc1ccc(NC(=O)CNS(=O)(=O)c2ccccc2)cc1Cl,4.28
23,Cc1cc(C)c2c(=O)[nH]c(SCC(=O)Nc3ccc(N(C)C)cc3)nc2n1,-2.77

row,Structure (SMILES),"hERG current change (%, negative = inhibition) at 10uM [%]"
1,Cc1noc(NS(=O)(=O)c2ccc(NC(=O)C(F)(F)F)cc2)c1C,25.4
2,Cc1cc(CN(C)Cc2c(C(=O)N3CCCCCCC3)nc3ccc(Cl)cn23)n[nH]1,-12.3
3,CCOC(=O)c1cnc(-c2ccccc2)nc1N1CCOCC1,5.56
4,O=C(Nc1nnc(C2CCCCC2)s1)c1ccco1,8.41
5,CCCn1c(SCC(=O)Nc2ccc3c(c2)CCC3)n[nH]c1=O,2.63
6,CC(=O)NC(CC(=O)N1CCCC1)c1ccccc1 (stereo not drawn),15.1
7,Cc1ccc(NC(=O)CCNS(=O)(=O)c2ccc3[nH]c(=O)oc3c2)cc1N(C)C,14.4
8,O=C(Nc1ccccc1C(=O)Nc1nnc(C(F)(F)F)s1)c1ccccc1Cl,18.3
9,Cn1c(SCCOc2ccccc2Cl)nnc1-c1cccs1,-35
10,Cc1ccc(NC(=O)N2CCN(C(=O)C3CCCO3)CC2)cc1 (stereo not drawn),9.64
11,O=C(c1ccc(COCC(F)(F)F)o1)N1CCCC1,28.6
12,COc1ccc(OC)c(C(=O)NC(CC(N)=O)c2ccc(N3CCC(Cc4ccccc4)CC3)c([N+](=O)[O-])c2)c1 (stereo not drawn),-5.07
13,O=C(CCc1ccc(S(=O)(=O)NCCc2ccccc2)cc1)NCc1ccc2c(c1)OCO2,-6.25
14,Cc1ccc(Nc2ccc(C(=O)O)cc2N)cc1,2.73
15,Cn1ncc(Cl)c1C(=O)NCc1cc(C(C)(C)C)n[nH]1,11.5
16,Cc1ccccc1C(=O)Nc1ccnn1C1CCN(Cc2ccc(CO)o2)CC1,-1.16
17,C[C@H]1CCC[C@H](O)CCCCCc2cc(O)cc(O)c2C(=O)O1,-51
18,Cc1ccc(-c2nnc(SCC(=O)NCCN3C(=O)CSC3=O)n2C)cc1,1.59
19,COc1cccc2cc(S(=O)(=O)c3ccc(C)cc3)/c(=N/NS(=O)(=O)c3ccc(C)cc3)oc12,-25.7
20,CC(=O)c1cccc(N(C(=O)c2ccco2)C(C(=O)NC2CCCC2)c2ccccc2F)c1 (stereo not drawn),-2.37
21,COc1cccc(C(=O)NNS(=O)(=O)c2ccc(C)cc2)c1,22.4
22,CCOc1ccccc1C(=O)NC1CC2CCCC(C1)N2Cc1nnnn1Cc1ccco1 (stereo not drawn),8.17
23,CCc1ccccc1NC(=O)CN(C)C(=O)Cn1cnc2ccc(Cl)cc2c1=O,-13.8

row,Structure (SMILES),"hERG current change (%, negative = inhibition) at 10uM [%]"
1,COc1ccc(-n2ccc(=O)c(C(=O)O)n2)c(OC)c1,14.8
2,CCC1CCC(c2nnc(-c3ccc([N+](=O)[O-])cc3)o2)CC1 (stereo not drawn),-14.6
3,COc1cccc(Nc2nc3ccccc3c(=O)[nH]2)c1,1.69
4,O=C(NC1CCCC1)C(c1ccc(Cl)cc1)N1CCOCC1 (stereo not drawn),-2.2
5,CCOC(=O)CN1CCc2c(C)nc3c(-c4ccc(OC)c(OC)c4)cnn3c21,-11.1
6,O=S1(=O)N=C(N=Nc2c(O)[nH]c3ccccc23)c2ccccc21,-37.1
7,CC1CC(C)CN(CC(O)COc2ccc3c(c2)CCC3)C1.Cl (stereo not drawn),-53.2
8,COC(=O)C(COC(=O)c1c(F)cccc1F)NC(=O)c1c(F)cccc1F (stereo not drawn),18.2
9,O=C(CN1CCN(c2ccc([N+](=O)[O-])cc2)CC1)Nc1ccccn1,-77.9
10,COc1ccccc1OCCC(=O)O,17.8
11,COc1ccc2cc([C@@H](C)C(=O)[O-])ccc2c1.[Na+],-2.41
12,NC(=O)CC(NC(=O)Cc1cccc2ccccc12)c1ccc(N2CCN(c3ccccc3)CC2)c([N+](=O)[O-])c1 (stereo not drawn),18.7
13,Cc1c(NC(=S)NC(=O)CC(C)C)c(=O)n(-c2ccccc2)n1C,-6.24
14,Cc1c(N=Cc2nc3ccccc3[nH]2)c(=O)n(-c2ccccc2)n1C,5.52
15,COc1ccccc1C1CCN(Cc2ccccc2Cl)CC1,-3.3
16,CSc1nsc(SCC(=O)NC2CCCCC2)n1,3.72
17,COCCNC(=O)/C(C#N)=C1\N=C(N)c2ccccc21,-0.413
18,NC(=S)N/N=C\c1c(OCc2ccccc2Cl)ccc2ccccc12,-2.61
19,CCc1cccc(C)c1NC(=O)C1CCCN1C(=O)NCc1ccccc1 (stereo not drawn),18.4
20,O=C(NCc1ccco1)c1cccc(Nc2nc3ccc(Br)cc3[nH]2)c1,-11.2
21,Cc1ccc(NC(=O)c2ccccc2OCC(=O)c2ccccc2)cc1,-3.22
